Experimental data: PubChem BioAssay AID624417 (National Center for Advancing Translational Sciences (NCATS), 2012)
Among all 410,000 compounds or so, about 6,400 (1.6%) were called active. Inconclusive means that the source gave no clear call. Such entries were picked first, then a sample of the others. The call rests on the fitted dose curve; in most records, active means well fitted inhibition curve with a large enough effect; inconclusive means small, poorly fitted or top-dose-only effect; inactive means no such curve, though single readings can be large or run the other way. Where the call is inconclusive, the potency comes from a doubtful curve fit.

Each compound was assayed against Glucagon-like peptide 1 receptor (Homo sapiens) (UniProt P43220) (assay: qHTS of GLP-1 Receptor Inverse Agonists (Inhibition Mode)). Settings: HEK293 GLP-1R CRE-luciferase, luminescence, 24 h, GLP-1R form is constitutively active; activity change, negative = inhibition: at 38.3 µM (top of the series) unless noted.
Sequence of UniProt P43220 (P43220 whole entry, looked up): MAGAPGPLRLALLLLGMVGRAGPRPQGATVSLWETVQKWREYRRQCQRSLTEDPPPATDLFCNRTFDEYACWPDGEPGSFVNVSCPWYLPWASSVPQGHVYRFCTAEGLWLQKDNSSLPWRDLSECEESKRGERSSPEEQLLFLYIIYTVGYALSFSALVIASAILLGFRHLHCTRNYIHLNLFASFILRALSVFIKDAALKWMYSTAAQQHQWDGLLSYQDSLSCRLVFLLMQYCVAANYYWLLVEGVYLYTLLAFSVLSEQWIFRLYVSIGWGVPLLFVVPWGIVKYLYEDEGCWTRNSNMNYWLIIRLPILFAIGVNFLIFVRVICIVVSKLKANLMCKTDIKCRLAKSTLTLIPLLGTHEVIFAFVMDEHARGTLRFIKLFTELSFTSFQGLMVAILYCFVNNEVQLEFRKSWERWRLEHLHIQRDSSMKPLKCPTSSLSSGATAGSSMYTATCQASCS
Method in brief: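 Assay principle: reduced luminescence from a cAMP-responsive reporter in HEK293 cells co-expressing a constitutively active GLP-1R. Conditions: 24 hr compound incubation, 37 deg C, 5% CO2.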
Further: nearly all actives have a fitted effect of over 55% in size.
On the % scale 0 is the no-effect control and ±100 the full control effect; potency means the concentration at half of the fitted maximal effect; tags describe the fitted curve by direction and shape.

Potency, active:
Cc1cc(C)cc(Nc2cc(C(=O)NCCCN(Cc3ccccc3)C(C)C)c3ccccc3n2)c1 5.62 µM
CCC1C(=NO)C(CC)C(c2ccccc2)NC1c1ccccc1 (stereo unspecified) 3.55 µM

Potency, inconclusive:
CCC(C)(C)n1nnnc1C(c1cc2ccc(OC)cc2[nH]c1=O)N1CCc2ccccc21 (stereo unspecified) 28.2 µM [inhibitor, single point]
CCCn1cc(S(=O)(=O)CC(=O)Nc2ccc(OCC)cc2)c2ccccc21 10 µM [inhibitor, partial curve, poor fit]
CN(C(=O)CCc1nnc(CCCCc2ccccc2)o1)C1CC(C)(C)NC(C)(C)C1 7.94 µM [inhibitor, partial curve, poor fit]
CCCCNC(=O)CS(=O)Cc1nc(-c2cccc(Cl)c2)oc1C (stereo unspecified) 31.6 µM [inhibitor, single point]
O=C(CNc1ccccc1-c1ccccc1)NCc1ccccc1 14.1 µM [inhibitor, partial curve, poor fit]
CC(COc1ccccc1)N1CCC(CO)(CCc2ccccc2)CC1 (stereo unspecified) 10 µM [inhibitor, partial curve, poor fit]
CN(C)CCCN(C(=O)CCOc1ccccc1)c1nc2c(F)cccc2s1 22.4 µM [inhibitor, single point]
COc1cccc(CNC(=O)CCS(=O)(=O)Cc2ccc(C)cc2)c1 5.62 µM [inhibitor, full curve, poor fit]
CN1CCCC(OC(=O)c2cc(Br)ccc2Cl)C1 (stereo unspecified) 8.91 µM [inhibitor, partial curve, poor fit]
Cc1ccccc1NS(=O)(=O)CCCCC(Cl)(Cl)Cl 28.2 µM [inhibitor, single point]
COCCN(Cc1cc2cc(C)ccc2[nH]c1=O)S(=O)(=O)c1ccc(Cl)cc1 8.91 µM [inhibitor, partial curve, poor fit]
CCOC(=O)c1sc(NC(=O)CSc2nc3c(cc2C#N)CCCCC3)c(C#N)c1C 0.501 µM [inhibitor, full curve, poor fit]
O=C(c1ccc(S(=O)(=O)N2CCOCC2)cc1)N1CCN(S(=O)(=O)c2ccc(Cl)s2)CC1 1.78 µM [inhibitor, full curve, poor fit]
Cc1cccc(OCCOC(=O)Nc2ccccc2)c1 28.2 µM [inhibitor, single point]
Cc1ccc(C(c2nnnn2C(C)(C)C)N(Cc2ccco2)Cc2cccs2)cc1 (stereo unspecified) 10 µM [inhibitor, partial curve, poor fit]
COc1ccccc1CNC(=O)CN1C(=O)NC(c2ccccc2)(c2ccc(C)c(C)c2)C1=O (stereo unspecified) 3.98 µM [inhibitor, full curve, poor fit]
c1cc(-c2cnc3cccnn23)c2cccnc2c1 7.94 µM [inhibitor, partial curve]
CCc1ccccc1N(C(=O)c1snc(C(N)=O)c1N)C(C(=O)NCC1CCCO1)c1c[nH]c2ccccc12 (stereo unspecified) 10 µM [inhibitor, partial curve, poor fit]
COc1ccc(CNC(=O)c2c(Nc3ccc(OC)cc3OC)sc(C(=O)c3ccc(Cl)cc3)c2N)cc1 22.4 µM [inhibitor, single point]
CCN1c2ccccc2-c2nc(SCC(=O)Nc3cccc(C(F)(F)F)c3)ncc2S1(=O)=O 28.2 µM [inhibitor, single point]
Cc1cccc(N/N=C/c2ccccc2O)c1 10 µM [inhibitor, partial curve, poor fit]
O=C(Nc1ncc(Cc2cccc(C(F)(F)F)c2)s1)C1CCCO1 (stereo unspecified) 22.4 µM [inhibitor, single point]
CCOc1cnc(-c2c(-c3c(Cl)cccc3Cl)noc2C)o1 10 µM [inhibitor, partial curve, poor fit]
COc1ccc(-c2cc(C(F)(F)F)nc(SCC(=O)N(C)Cc3ccccc3)n2)cc1OC 15.8 µM [inhibitor, partial curve, poor fit]
Cc1ccc(NS(=O)(=O)c2c(C)[nH]c(C)c2C(=O)N2CCCCC2)cc1Cl 22.4 µM [inhibitor, single point]
COc1ccccc1C(=O)Nc1ccc(S(=O)(=O)N(C)c2ccccc2)cc1 28.2 µM [inhibitor, single point]
Cc1ccccc1NC(=O)c1c(C)oc2ccc(O)c(CN3CCCC3)c12 31.6 µM [inhibitor, single point]
Cc1sc2ncnc(N3CCC(C(=O)NCC(=O)Nc4ccc(F)c(F)c4)CC3)c2c1C 7.94 µM [inhibitor, partial curve, poor fit]
CCC/C(=N\NC(=O)CNC(=O)c1ccc(Cl)cc1)c1ccccc1 28.2 µM [inhibitor, single point]
COc1ccc(-n2c(C)c(C(C)=O)c3cc(O)ccc32)cc1 2 µM [inhibitor, full curve, poor fit]
CCCNC(=O)C1(C)CCN(Cc2ccc(OC)c3ccccc23)C1 (stereo unspecified) 28.2 µM [inhibitor, single point]
COc1cc(OC)cc(C(=O)Nc2ccc3oc(-c4ccccc4C)nc3c2)c1 12.6 µM [inhibitor, single point]
COc1ccc(OC)c(CN2CCN(C(=O)c3ccc(S(=O)(=O)N4CCCCCC4)cc3)CC2)c1 28.2 µM [inhibitor, single point]
CC(NCCO)C(=O)C12CC3CC(CC(C3)C1)C2 (stereo unspecified) 3.55 µM [inhibitor, partial curve]
Clc1ccccc1Cc1noc(CN2CCN3CCCC3C2)n1 (stereo unspecified) 28.2 µM [inhibitor, single point]
CCOc1ccccc1Nc1sc(C(=O)c2ccccc2)c(N)c1C(=O)NCCc1ccccc1 11.2 µM [inhibitor, single point]
O=C(C=Cc1cccs1)c1cccs1 28.2 µM [inhibitor, single point]
CCN(c1ccccc1)S(=O)(=O)c1ccc(OCC(=O)Nc2cc(C)on2)cc1 28.2 µM [inhibitor, single point]
Cc1ccc(NC(=O)CN2CCCC2c2cccn2C)c(Br)c1 (stereo unspecified) 28.2 µM [inhibitor, single point]
Oc1c(Br)cc(Br)cc1/C=N/c1nccs1 28.2 µM [inhibitor, single point]
COc1ccc(C(=O)NC(=C(Cl)Cl)S(=O)(=O)c2ccc(C)cc2)cc1 28.2 µM [inhibitor, single point]
CSC(=Nc1ccccc1)C1=C(O)COC1=O 5.62 µM [inhibitor, partial curve]
CN1CCN(C(=O)CSc2nc(-c3cccs3)cc(-c3cccs3)c2C#N)CC1 22.4 µM [inhibitor, single point]
CN(Cc1ccno1)C(=O)CC1C(=O)NCCN1CC(c1ccccc1)c1ccccc1 (stereo unspecified) 31.6 µM [inhibitor, single point]
COc1ccc(-n2c(SCCNCCO)nc3sc4c(c3c2=O)CCCC4)cc1 7.94 µM [inhibitor, partial curve, poor fit]
CN(Cc1ccccc1)C(=O)C1CCCN(Cc2ccc(Cl)cc2)C1 (stereo unspecified) 10 µM [inhibitor, partial curve, poor fit]
COc1ccccc1N1CCN(C(=O)c2ccc(CSc3ccccc3)cc2)CC1 28.2 µM [inhibitor, single point]

Activity change, negative = inhibition, inconclusive:
O=c1cc(Cl)c(-c2ccccc2)nn1Cc1ccc(Cl)cc1 -77.6% [inhibitor]

Activity change, negative = inhibition, inactive:
COc1ccc(-c2cnc(N)n2CC2CCCO2)cc1 (stereo unspecified) 45.7%
COC(=O)CC1Oc2ccc(F)cc2-n2cc(-c3ccc(Cl)cc3)nc21 (stereo unspecified) 13%
Cc1ccnc(NC(=O)c2cc3ccccc3oc2=O)c1 8.36%
Cc1ccc(CNC(=O)C2CCC(CNS(=O)(=O)c3ccc4c(c3)CCCC(=O)N4)CC2)cc1 (stereo unspecified) 3.25%
COc1ccccc1NC(=S)NC1CCCCC1 -19.5%
COc1cc(O)ccc1C1CC(=O)Nc2c1c(=O)nc(SCc1ccccc1C)n2C (stereo unspecified) -1.8%
COc1ccc(-c2cc(-c3cccs3)c(C#N)c(SCC(=O)NCc3ccccc3OC)n2)cc1 -13.3%
COc1ccc2nc(S(=O)Cc3ncc(C)c(OC)c3C)[nH]c2c1 (stereo unspecified) -0.28%
COc1ccc(-c2nc(CSCC(=O)N3CCN(C)CC3)c(C)o2)cc1OC 17.9%
CC(=O)N1CCOc2cc(S(=O)(=O)NCc3ccc(C)cc3)c(C)cc21 3.41%
CCN(CC)C(=O)C1=C(C)N(CCCN2CCCC2=O)C(=O)C(CC(=O)NCCCN(C)C)C1 (stereo unspecified) 16.1%
CN(CC(=O)Nc1ccc(F)cc1)C(=O)C1CCN(C(=O)Nc2ccccc2)CC1 -9.1%
CC(C)CNc1nc(NC(C)(C)C)nc(Oc2ccc(=O)n(-c3ccccc3)n2)n1 -27.3%
O=C(c1csc(Nc2ccccc2Cl)n1)N1CCCC1 16.7%
Cc1nn2c(C)c(C(=O)N3CCN(c4ccccc4)CC3)cnc2c1-c1ccccc1 -31.8%
COc1cc(C(=O)Oc2ccccc2/C=N/NC(=O)c2ccc(C)c(Cl)c2)cc(OC)c1OC -1.79%
